Experimental findings from article PMC7772775, “The uncharacterized protein FAM47E interacts with PRMT5 and regulates its functions” (Life Science Alliance, 2020) are described below.

Sequences of proteins named here, by UniProt entry; tags and fusion partners are left off. A change or cut given only in a name is not applied to a line headed by its entry.
UniProt O14744: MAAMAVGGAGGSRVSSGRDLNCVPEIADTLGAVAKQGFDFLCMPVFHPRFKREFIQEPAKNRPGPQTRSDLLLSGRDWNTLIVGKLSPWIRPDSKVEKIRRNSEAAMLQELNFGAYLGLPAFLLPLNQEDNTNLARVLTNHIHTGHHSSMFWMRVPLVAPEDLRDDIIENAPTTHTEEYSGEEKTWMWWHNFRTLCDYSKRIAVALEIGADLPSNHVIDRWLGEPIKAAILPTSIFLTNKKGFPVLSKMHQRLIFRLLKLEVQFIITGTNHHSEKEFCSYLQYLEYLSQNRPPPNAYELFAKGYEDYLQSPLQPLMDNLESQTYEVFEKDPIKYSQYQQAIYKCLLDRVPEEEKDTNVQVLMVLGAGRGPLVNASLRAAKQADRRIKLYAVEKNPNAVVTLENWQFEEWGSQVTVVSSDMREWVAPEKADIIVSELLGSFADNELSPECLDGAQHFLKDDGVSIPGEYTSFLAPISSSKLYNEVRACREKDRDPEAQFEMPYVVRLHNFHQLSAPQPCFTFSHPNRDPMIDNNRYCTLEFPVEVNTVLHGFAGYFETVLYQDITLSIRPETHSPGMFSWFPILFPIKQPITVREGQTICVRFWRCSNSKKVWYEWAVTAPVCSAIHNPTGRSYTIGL
UniProt Q92905: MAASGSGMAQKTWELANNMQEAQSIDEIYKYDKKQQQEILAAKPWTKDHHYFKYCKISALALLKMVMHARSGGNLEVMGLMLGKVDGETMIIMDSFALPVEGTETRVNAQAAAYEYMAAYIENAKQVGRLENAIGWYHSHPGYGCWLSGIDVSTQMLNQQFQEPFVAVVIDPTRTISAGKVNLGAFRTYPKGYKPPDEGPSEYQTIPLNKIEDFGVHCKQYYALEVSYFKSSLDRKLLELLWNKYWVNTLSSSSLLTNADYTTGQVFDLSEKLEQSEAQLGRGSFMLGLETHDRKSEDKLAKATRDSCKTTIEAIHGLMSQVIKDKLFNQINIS

No constants are given. Whether binding was seen depends on the method and setting. For some assays here: In cells and extracts the contact can be indirect. Some entries that bind do so weakly or less than the wild type. For some assays here: Where a sequence is shown, tags or fusion partners need not be part of it.

In assay [1] the target is GFP-tagged PRMT5 (human) (UniProt O14744). In words: co-IP; HEK293 cells co-transfected; lysis buffer 10 mM Tris pH 7.5, 150 mM NaCl, 0.5 mM EDTA, 0.5% NP-40; GFP-Trap A beads, 8 h at 4°C; with or without HA-FAM47E overexpression; bound fractions probed with Myc antibody.
Assay [2] has as its target T1, GFP-tagged FAM47E (human) (UniProt Q6ZV65).
T1 sequence: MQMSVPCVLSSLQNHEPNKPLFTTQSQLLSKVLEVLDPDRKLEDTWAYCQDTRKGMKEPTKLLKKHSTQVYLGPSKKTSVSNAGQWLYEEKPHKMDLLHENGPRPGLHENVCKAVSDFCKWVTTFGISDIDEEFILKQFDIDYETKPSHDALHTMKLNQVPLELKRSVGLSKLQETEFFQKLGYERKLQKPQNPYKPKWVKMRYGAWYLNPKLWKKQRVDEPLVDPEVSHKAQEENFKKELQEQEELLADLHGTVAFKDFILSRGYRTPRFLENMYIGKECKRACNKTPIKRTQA
The experiment in a line: co-IP; HEK293 cells transfected with GFP or GFP-FAM47E; RIPA buffer; GFP-Trap A beads; bound fractions probed with PRMT5 antibody (endogenous PRMT5).

For assay [3], the target named is T1, GFP-tagged FAM47E (human). In words: co-IP; HEK293 cells co-transfected; lysis buffer 10 mM Tris pH 7.5, 150 mM NaCl, 0.5 mM EDTA, 0.5% NP-40; GFP-Trap A beads, 8 h at 4°C; with or without HA-FAM47E overexpression; bound fractions probed with Myc antibody.
The target of assay [4] is PRMT5 (protein arginine methyltransferase 5), pGBKT7-PRMT5 two-hybrid bait (human) (UniProt O14744). The experiment in a line: two-hybrid; library screen, Matchmaker Gold system; pGBKT7-PRMT5 as bait, normalized human cDNA library as prey; low stringency (two reporter genes) and high stringency (four reporter genes) selection media. For orientation: In a reporter assay the amount or activity of a reporter protein is the signal.

Assay [5] addresses T1, GFP-tagged FAM47E (human). In words: co-IP; HEK293 cells co-transfected with both tagged constructs; lysed in RIPA buffer; GFP-Trap A beads, 8 h at 4°C; bound fractions probed with Myc or HA antibody.
The target of assay [6] is PRMT5 (protein arginine methyltransferase 5), pGBKT7-PRMT5 two-hybrid bait (human) (UniProt O14744). The experiment in a line: two-hybrid; co-transformation of pGBKT7-PRMT5 and pGADT7-FAM47E in MM Gold yeast strain, with vector controls; SD-Trp/-Leu/+Aba/+X-alpha-Gal and SD-Trp/-Leu/-His/-Ade/+Aba/+X-alpha-Gal media.
The target in assay [7] is GFP-tagged PRMT5 (human) (UniProt O14744). In words: co-IP; HEK293 cells co-transfected with both tagged constructs; lysed in RIPA buffer; GFP-Trap A beads, 8 h at 4°C; bound fractions probed with Myc or HA antibody.

Consider “Myc-tagged E3 ubiquitin ligase CHIP (from UniProt Q9UNE7-1 1-303) (enzyme)”, for which the binding entry with GFP-tagged PRMT5 (human) [1] is reported as “binds”.

Take “endogenous PRMT5 (from UniProt O14744 1-637) (enzyme)”: the binding result in assay [2] was “binds”.

Consider “Myc-tagged MEP50 (from UniProt Q9BQA1-1 1-342)”, for which the binding result in assay [3] is “binds”.

As to “COP9 signaling complex subunit 5 (COPS5 protein), full length, two-hybrid library clone (from UniProt Q92905 1-334)”, in assay [4], the binding entry is given as “no binding”.

For the molecule “Myc-tagged PRMT5 (from UniProt O14744-1 1-637) (enzyme)”, the binding result in assay [5] is given as “binds”.

B1: C-terminal region of FAM47E isoform 2 (43 amino acid to 295 amino acid), two-hybrid library clone (domain or fragment, UniProt Q6ZV65-2 43-295)
chain: EDTWAYCQDTRKGMKEPTKLLKKHSTQVYLGPSKKTSVSNAGQWLYEEKPHKMDLLHENGPRPGLHENVCKAVSDFCKWVTTFGISDIDEEFILKQFDIDYETKPSHDALHTMKLNQVPLELKRSVGLSKLQETEFFQKLGYERKLQKPQNPYKPKWVKMRYGAWYLNPKLWKKQRVDEPLVDPEVSHKAQEENFKKELQEQEELLADLHGTVAFKDFILSRGYRTPRFLENMYIGKECKRACNKTPIKRTQA
B1: the binding entry in assay [4] was “binds”.

B2: FAM47E isoform 2, full length, pGADT7-FAM47E two-hybrid prey (protein, UniProt Q6ZV65-2 1-295)
chain: T1 sequence
With B2, the binding result in assay [6] is listed as “binds”.

B3: HA-tagged FAM47E (protein, UniProt Q6ZV65-2 1-295)
chain: T1 sequence
Take B3: the binding entry with GFP-tagged PRMT5 (human) [7] was “binds”.
